# The supplement of paper PMC10126150
# Values marked as one replicate rest on one cluster of the flow cell; about a third of the high ones do not repeat.
# System: ATP
# Experiment: switch fluorescence ratio, 500 uM ATP over buffer (Cy3 cluster intensity, sum of 5 cycles each) (fold (ratio)); higher = stronger signal-on switching upon ATP binding; sequences stand for … in TCGTCGGCAGCGTCAGATGTGTATAAGAGACAGTTTTTTTTTTTTTTTTTTTTTTTTT…TC
# Details: aptamer strand: ATP DNA aptamer (quencher-CACCTGGGGGAGTATTGCGGAGGAAGG + anchor), 100 nM annealed; ATP concentration: 500 uM; one replicate
# Method in brief: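 Clusters carrying Cy3-labelled switching strands on a modified Illumina MiSeq flow-cell were annealed to 100 nM quencher-labelled ATP aptamer and imaged in selection buffer. They were imaged again after 15 min with 500 uM ATP at 22 °C, over five buffer/ATP cycles with NaOH stripping and re-annealing in between. For each cluster, the fluorescence ratio is the summed Cy3 intensity of the target cycles divided by that of the buffer cycles, averaged per switch-domain sequence. Clusters outside 100-1000 RFU were left out.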
# 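Further: ATP exposure 15 min at 22 °C before imaging.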
row,Sequence,switch fluorescence ratio
1,AGGGTAGCGT,1.02
2,CTAAGTAGGA,0.999
3,CAAATATGGG,0.973
4,GGCGTAACAG,0.959
5,CTCGCTGCTT,0.979
6,TGGTGTCATT,0.965
7,GTTTCCGGTG,1.16
8,AATGTATTCA,1.01
9,CCAGGTTTTC,0.986
10,GTGATATATG,0.968
11,AAACATCCTC,1.27
12,GGTTTGCATC,1
13,GAGATTTAAT,0.993
14,CGGTGAGGTT,0.986
15,TTTCAAAAGC,0.993
16,ATACCCTCTT,1.05
17,TTCGCATCCC,1.32
18,TCGCTTTGAC,2.01
19,TATCTTTGGA,0.99
20,GAAGTTTATT,1.05
21,GGGTAGAAAT,0.979
22,GCATTATCAC,1.1
23,CCTTTTGTTT,1.05
24,ATCATCCAAC,1.05
25,GTAGTCCCTC,1.01
26,AATAAGGATC,0.959

row,Sequence,switch fluorescence ratio
1,CACTTTTTTG,0.983
2,TTGAGTAACG,1.03
3,TTTAAGGGCT,1.04
4,TGGGCGTTC,1.07
5,ATCTTGCGAT,1.02
6,GCATGACAGT,1.03
7,GCCGAAGTAA,2.98
8,AGTGTACGGC,1.06
9,CTATAATGGC,1.06
10,AAGAGGGGCA,0.987
11,GATCGTTAGG,0.985
12,TCAATGTTC,0.954
13,TAGGCAAAGA,1.06
14,ATTTAACCTT,1.04
15,GACCAACAC,1.42
16,TCATCCTTTG,0.99
17,CCATGAGCTA,1.55
18,CGCTTCCTAC,2.58
19,TACGAACGGT,1.2
20,CAGTGATTCC,1.05
21,CTGGGTCAAT,1.29
22,GCAGTCGGGG,1.03
23,AGGTCATTGG,0.986
24,TAGCGATTTT,1
25,AGTTTCAGTA,0.97
26,GATTAATTGT,0.974

row,Sequence,switch fluorescence ratio
1,ATCCGGTCTG,1.06
2,AGCCATTATC,1.02
3,TAACCAGACG,1.1
4,AAGATTTAAC,0.998
5,TTTGATTAGC,0.973
6,TGAGCCAGAA,1.05
7,ATTATTTCC,1.07
8,GCTTGCAACG,1.02
9,AGGATATAAG,0.965
10,GATAATCCAT,0.966
11,ACTCACTTTC,1.18
12,ATGTCTGGGG,0.989
13,CGTTAGCGTG,0.992
14,TGACTAAGAC,1.1
15,TAAGAGCGAA,0.971
16,CAGTCATAGC,1.03
17,GGGACAGGA,0.941
18,TGATTTTCG,1.02
19,ACGCCTAAGG,1.08
20,TGAATTTCAG,0.999
21,CGTCGGCTTG,1
22,GTTTAAGAGT,0.973
23,GGTTATGTAC,1.04
24,AACGTCGCGA,1.04
25,CGAGGTTAGC,1.01
26,TGATCGGTTT,0.999

row,Sequence,switch fluorescence ratio
1,GATGTAGAGT,0.993
2,CAAGGGGTTA,0.956
3,TATTGGCGTA,0.966
4,GGACGTCGGG,0.991
5,ACACCCCCTT,1.56
6,GCATAGGAGT,1.05
7,AACGAGGCTG,1.5
8,CTAAATTGT,1.01
9,ATTCGCCTTT,0.985
10,GCACACAATG,1.04
11,AGCGTTGGTC,1.03
12,ATCAAATGTG,0.95
13,GGCTATGTAA,0.986
14,ATCTTTTGTA,0.977
15,TAGATCCGCT,1.17
16,TGCATGAATC,1.07
17,ATTTTATAGA,0.997
18,CTCAAAGAAA,1
19,AATATTATGT,1.04
20,AATGTTGGTT,0.948
21,AATACGGAGC,1.13
22,AAACAAGATC,0.987
23,AGTTGCACCA,1.01
24,AATTGAGAGA,0.968
25,TGCAGTCGTT,0.972
26,CCTTTGGCGC,1.19

row,Sequence,switch fluorescence ratio
1,ATCGCTGCG,1.01
2,GGTAGTATGA,1.07
3,CTTAGCGGAG,0.966
4,TGAACCGCGC,3.11
5,AGATGGTTAG,1.02
6,ATAAGTGGCG,1.11
7,GCCGTAACGA,1
8,TTTCAGCGTA,1.06
9,TAGACAAGCG,0.953
10,CGGTCGAGGG,1.02
11,GCTACGTCGC,0.995
12,CCTAGCGGTA,1.34
13,TGAATAATGG,1.04
14,TCAGGGTAAC,0.981
15,AGAGTTAAGC,0.968
16,TATACGTGG,0.942
17,GGTTCCGGGC,1.1
18,ATCTAAGTCA,1.67
19,CGAAATGGAA,1.04
20,AATAAACTT,1.02
21,GATTCGAGGC,1.08
22,TCGGTAAGGC,1.13
23,AACAGGACTT,1.12
24,CACAACAGTT,0.97
25,AAGATATCA,0.985
26,TTTAGCTTGA,1.01

row,Sequence,switch fluorescence ratio
1,TATTGCGTT,0.966
2,TGACAGCAGG,1.04
3,TCGTGCTGTA,0.972
4,TGAGTATTGT,1
5,ACTTTTCAAG,1.04
6,TTATCCAGGG,1.21
7,AGTTATAT,0.984
8,GGTATCTTGC,0.979
9,CTTAATAGTC,0.95
10,AAGGCGGGAT,1.07
11,TTGATTTCA,1
12,CCATTAAGTT,1.02
13,CGTCCGGGTC,1.73
14,CACTATCGGC,1.07
15,TAACACGGTT,0.994
16,TGAAATACTG,1
17,ACGAAGGTAC,1.41
18,CGAAGGTCGA,0.976
19,GGGCCATCTC,1.03
20,AGATGTGGAG,0.916
21,TTGCGTATAC,3.26
22,TTTCGTTGT,1.02
23,GCCTGTTCGA,1
24,TGGCCGATAG,1.02
25,GGGGGCCCGC,1
26,AGAATCTTTT,1

row,Sequence,switch fluorescence ratio
1,ACTATCACCT,1.24
2,ACTTTGCCGA,1.06
3,GGGCTATCTC,1.06
4,ACGTTCAAAC,1.18
5,TCCTATTTAT,1
6,CATTTTATTC,1.01
7,ATTTTGGAAG,0.956
8,AGCGAAGTCT,1.02
9,GGACTCTAAG,0.951
10,GACTCACTGA,1.16
11,CGTGTCACGC,1.01
12,ATGTAGGTGC,1.05
13,ATCTCTGGG,0.928
14,CGGAATTATT,0.972
15,CCCCACGAAG,1.05
16,CTTGGGA,1.05
17,TTAGAGTAAT,1.28
18,AGGAGCCGAG,0.993
19,GTGTTACGTA,1.05
20,TGACCAGTAC,3.17
21,CGAAGCCTCC,4.42
22,AGTTCGGCTT,1.05
23,GGATTATGTT,1.04
24,ATTATGTAAC,0.997
25,CCCAACTATG,1.08
26,AGGAAAGTTG,1.03

row,Sequence,switch fluorescence ratio
1,GTCACCCGGT,1.2
2,TCCAGGGG,2.4
3,CACAGGATGG,1.01
4,GAGCGTTGTC,1.01
5,ACACCCTTTT,1.12
6,ACCCTTTGCC,1.05
7,AGACGAGCTG,0.965
8,TAAAAAGAAC,1.01
9,CATAATGGAA,0.952
10,AACTACGTCC,1.14
11,CGTACTTGTA,1
12,TCGAGCTTTT,0.995
13,ATGGCACATC,1.45
14,CGGCATGTTT,1
15,AATTTTGACA,1.04
16,ATGTAAGTTG,1.01
17,TCTTCCCCAG,4.71
18,GGTTCACTC,1
19,ATTGACCAGG,1.02
